{"source": "patent US9433687B2", "about": "“Anti-Notch3 antibodies and antibody-drug conjugates” (Pfizer Inc., priority 2012, dated 2016)", "molecules": {"B1": {"name": "hu28-vc0101: hu28 conjugated to vc0101 linker-payload (conjugate)", "heavy": "EVQLVESGGGLVQPGGSLRLSCAASGFTFRDYGMTWVRQAPGKGLEWVAYISSGSNYIYYAEAVKGRFTISRDNAKNSLYLQMNSLRAEDTAVYYCARRGPFVLDAWGQGTLVTVSS[letters of human IgG1 constant region omitted]", "light": "DIQMTQSPSSLSASVGDRVTITCKASQSINRYLHWYQQKPGKAPKLLIYNANGLQTGVPSRFSGSGSGTDFTLTISSLQPEDFATYYCLQHNTWPDTFGGGTKVEIKRTVAAPSVFIFPPSDEQLKSGTASVVCLLNNFYPREAKVQWKVDNALQSGNSQESVTEQDSKDSTYSLSSTLTLSKADYEKHKVYACEVTHQGLSSPVTKSFNRGEC"}}, "key": {"U2OS/hNotch3": {"target": "T1, U2OS/hNotch3 (Homo sapiens, UniProt Q9UM47)", "T1 construct": "U-2 OS cells stably over-expressing human full length Notch3 protein on cell surface; expressed in transfected cells; host or cells: U-2 OS (human osteosarcoma)", "T1 sequence (Q9UM47 40-2321)": "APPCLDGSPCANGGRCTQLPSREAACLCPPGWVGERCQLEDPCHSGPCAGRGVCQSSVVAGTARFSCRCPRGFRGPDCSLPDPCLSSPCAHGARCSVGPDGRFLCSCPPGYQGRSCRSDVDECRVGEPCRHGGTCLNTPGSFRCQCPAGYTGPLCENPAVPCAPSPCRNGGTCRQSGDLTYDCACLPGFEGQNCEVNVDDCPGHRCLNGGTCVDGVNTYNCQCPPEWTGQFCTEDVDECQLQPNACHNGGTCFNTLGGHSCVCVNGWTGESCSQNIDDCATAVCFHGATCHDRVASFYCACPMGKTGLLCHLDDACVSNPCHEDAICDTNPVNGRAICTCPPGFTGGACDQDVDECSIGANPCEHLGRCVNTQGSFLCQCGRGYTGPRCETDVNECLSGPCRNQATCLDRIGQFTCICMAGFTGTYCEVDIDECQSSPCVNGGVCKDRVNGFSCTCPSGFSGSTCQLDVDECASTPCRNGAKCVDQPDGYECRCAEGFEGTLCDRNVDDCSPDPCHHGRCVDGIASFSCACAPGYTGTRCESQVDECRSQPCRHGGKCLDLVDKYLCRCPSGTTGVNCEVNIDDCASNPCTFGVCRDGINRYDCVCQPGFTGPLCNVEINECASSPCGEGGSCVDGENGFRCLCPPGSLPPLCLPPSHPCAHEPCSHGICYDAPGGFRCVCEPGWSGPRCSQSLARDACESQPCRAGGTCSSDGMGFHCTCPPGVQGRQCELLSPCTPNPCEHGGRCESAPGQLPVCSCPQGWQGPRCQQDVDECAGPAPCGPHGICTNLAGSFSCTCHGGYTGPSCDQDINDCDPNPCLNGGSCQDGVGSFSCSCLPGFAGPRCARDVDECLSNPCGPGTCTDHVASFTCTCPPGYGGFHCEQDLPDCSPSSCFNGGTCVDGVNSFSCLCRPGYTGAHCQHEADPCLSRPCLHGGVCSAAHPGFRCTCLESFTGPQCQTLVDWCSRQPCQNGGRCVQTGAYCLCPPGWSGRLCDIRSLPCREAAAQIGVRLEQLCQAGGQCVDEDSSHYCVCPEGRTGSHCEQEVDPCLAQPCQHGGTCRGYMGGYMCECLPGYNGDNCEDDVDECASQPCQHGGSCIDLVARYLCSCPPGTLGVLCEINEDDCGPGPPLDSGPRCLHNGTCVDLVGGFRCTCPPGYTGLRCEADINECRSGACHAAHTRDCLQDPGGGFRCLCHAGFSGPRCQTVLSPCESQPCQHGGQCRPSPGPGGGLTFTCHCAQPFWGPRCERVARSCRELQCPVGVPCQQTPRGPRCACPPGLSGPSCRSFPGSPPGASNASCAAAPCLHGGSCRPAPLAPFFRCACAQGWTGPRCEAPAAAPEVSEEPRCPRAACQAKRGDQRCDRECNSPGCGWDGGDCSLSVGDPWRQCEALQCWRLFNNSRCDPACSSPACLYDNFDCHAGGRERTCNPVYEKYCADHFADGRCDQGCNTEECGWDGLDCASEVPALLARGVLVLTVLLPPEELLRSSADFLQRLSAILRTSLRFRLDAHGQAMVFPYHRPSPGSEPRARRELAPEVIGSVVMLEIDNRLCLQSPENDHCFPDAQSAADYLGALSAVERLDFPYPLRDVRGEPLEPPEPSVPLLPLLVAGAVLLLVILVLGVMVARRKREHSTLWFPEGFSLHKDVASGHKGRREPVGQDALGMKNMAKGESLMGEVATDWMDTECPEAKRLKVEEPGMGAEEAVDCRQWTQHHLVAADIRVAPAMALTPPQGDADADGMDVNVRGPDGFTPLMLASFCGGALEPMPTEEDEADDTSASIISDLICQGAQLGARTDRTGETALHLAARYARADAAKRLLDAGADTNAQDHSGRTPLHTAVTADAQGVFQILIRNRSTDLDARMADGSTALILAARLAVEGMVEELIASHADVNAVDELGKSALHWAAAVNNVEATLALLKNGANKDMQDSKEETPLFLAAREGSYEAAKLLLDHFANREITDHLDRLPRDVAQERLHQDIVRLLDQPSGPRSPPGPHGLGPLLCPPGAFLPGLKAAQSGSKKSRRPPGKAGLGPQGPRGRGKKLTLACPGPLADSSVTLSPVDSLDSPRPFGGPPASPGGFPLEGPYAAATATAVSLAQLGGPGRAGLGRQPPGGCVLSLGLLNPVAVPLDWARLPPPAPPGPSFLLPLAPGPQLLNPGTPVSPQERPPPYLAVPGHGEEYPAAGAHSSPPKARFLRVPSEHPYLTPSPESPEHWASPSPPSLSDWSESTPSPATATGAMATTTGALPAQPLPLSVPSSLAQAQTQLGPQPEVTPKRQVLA", "test": "In vitro cytotoxicity (MTS), U2OS/hNotch3", "assay_type": "cell-based", "conditions": "Table 14; LP = lacked potency", "procedure": "The effects of anti-Notch3 ADCs were assessed on 1) cell lines endogenously expressing Notch3 protein: HCC2429 (lung cancer), OVCAR3 (ovarian cancer) and MDA-MB-468 (breast cancer), 2) cell lines engineered to over-express full length human Notch3 protein: MDA-MB-468/hNotch3 and U2OS/hNotch3, and 3) a negative control cell line (SW900) using an MTS cellular viability indicator (Promega, Madison, Wis.). These cell lines were cultured with increasing concentrations of anti-Notch3 ADCs comprising rat-human chimeric anti-Notch3 antibodies, ch28 and ch75, and humanized anti-Notch3 antibodies, hu28 and hu75, conjugated to various linker-payload combinations of the present invention. As a specificity control for the anti-Notch3-ADCs, non-targeted control-ADCs (huNeg8.8-ADCs or ch2H6-ADCs) were also tested on the same cell lines. After four days, viability of each culture was assessed. IC50 values were calculated by logistic non-linear regression, model #203 with XL fit v4.2 (IDBS, Guildford, Surry, UK) and presented as ng Ab/mL. The drug antibody ratio (DAR) is also provided."}, "[1]": {"test_system": "OVCAR3 ovarian cancer cells", "test": "Disruption of microtubules, immunofluorescence (anti-alpha-tubulin, phospho-Histone H3)", "assay_type": "cell-based, human", "conditions": "1.0 μg/ml, forty-eight hours; FIG. 10", "procedure": "Following internalization and intracellular release of the payload from the Notch3-ADC, the presumed mechanism of action of the released payload is disruption of microtubules that are required for cell division, thereby leading to cell cycle arrest, induction of apoptosis and cell death.\nOVCAR3 cells were seeded in a Lab Tec II 4 chambered coverglass with cover #1.5 borosilicate sterile slides (Thermo Fisher Scientific Inc.). […] Forty-eight hours later, cells were washed twice with HBSS++ and fixed in 4% paraformaldyhide for 10 minutes. Cells were washed three times with PBS and permeabilized with 0.5% Triton X-100 for 2 minutes. After washing cells three times with PBS, cells were blocked with 3% BSA/PBS for 30 minutes at room temperature. Cells were then incubated with 1:100 of anti-phospho-Histone H3 (Ser10) (Cell Signaling) and 2 μg/ml of anti-alpha-Tubulin, (Millipore) in 2% BSA/PBS for 2 hours at room temperature. After 2 hours, cells were washed twice with PBS and then incubated with a 1:500 dilution of goat anti-mouse Alexa Fluor 488 and goat anti-rabbit 555 for 45 minutes at room temperature. Cells were washed twice with PBS and samples were imaged on an LSM710 confocal microscope (Zeiss)."}, "[2]": {"test_system": "caspase-3/7 activity in MDA-MB-468/hNotch3", "test": "Caspase-Glo 3/7 apoptosis assay, MDA-MB-468/hNotch3", "assay_type": "cell-based, human", "procedure": "(§1) Caspase-3 and caspase-7 (caspase-3/7) proteases are key members of the programmed cell death machinery responsible for mediating late apoptotic events in mammalian cells. The activity of caspase-3/7 was measured in Notch3 expressing cell lines that were treated with Notch3-ADCs.\n(§2) OVCAR3, HCC2429 and MDA-MB-468/hNotch3 cells were seeded onto opaque white tissue culture plates and incubated overnight. OVCAR3 and HCC2429 were treated at 1.1 μg/ml and MDA-MB-468/hNotch3 cells were treated 1 μg/ml of hu28-vc0101 and huNeg8.8-vc010 (control ADC). After 48 hours incubation, cells were treated with the Caspase-Glo 3/7 reagent (Promega #G8090) for 2 hours at room temperature. Luminescence was measured with a luminometer and following subtraction of background, values were reported as relative luminescence units."}, "[3]": {"test_system": "phospho-Histone H3 (pHH3) stained nuclei in MDA-MB-468 breast xenografts", "test": "pHH3 immunohistochemistry in ADC treated MDA-MB-468 xenografts", "assay_type": "in vivo, mouse", "procedure": "The MDA-MB-468 breast cancer model was used to examine the in vivo mechanism of action of hu28-vc0101. The pharmacodynamics of hu28-vc0101 was visualized at the cellular level by staining with the mitotic marker phospho-Histone H3 in ADC treated xenografts. Histone H3 is phosphorylated on Ser-10 residues (hereinafter “pHH3”) within chromatin during the mitotic phase of the cell cycle.\nMice bearing MDA-MB-468 breast xenografts were given a single 3 mg/kg dose intravenously with anti-Notch3 ADC hu28-vc0101, huNeg-8.8-vc0101 (control ADC) or PBS. Three xenografts were harvested after 6, 24 and 96 hours and processed for standard immunohistochemistry. Five micrometer thick formalin fixed, paraffin embedded tissue sections were deparaffinized in xylene substitute, rehydrated with graded alcohols to distilled water. To expose antigenic sites, tissue sections were heated in 10 mM citrate buffer pH 6.0 (Labvision) in a pressure cooker (Retriever; Electron Microscopy Sciences) and cooled to room temperature. Endogenous peroxidase activity was inactivated with 3% hydrogen peroxide for 15 min. […] Tissue sections were incubated with anti-pHH3 antibody for one hour, detected with Signalstain Boost Reagent (8114, Cell Signaling Technologies) for 30 minutes and color was developed with DAB+ (DAKO) for 5 minutes. […]\nImmunohistochemically stained slides were evaluated by image analysis. […] Once digitized, the virtual slides were analyzed using Definiens Tissue Studio software. […] Individual nuclei were identified within the viable regions of the xenograft and the positivity was determined using the average brown chromogen intensity of each nuclei. Data is presented as percent (%) pHH3 positivity which is calculated using the following equation: (Number of pHH3 positive nuclei (viable region)/Total number of nuclei (viable region))*100. Determination of statistical significance was determined for each treatment group and time point compared to PBS control at 24 hour time point with Graph Pad Prism using a 2 tailed T test."}, "[4]": {"test_system": "caspase-3/7 activity in OVCAR3", "test": "Caspase-Glo 3/7 apoptosis assay, OVCAR3", "assay_type": "cell-based, human", "conditions": "1.1 μg/ml, 48 hours", "procedure": "as §1, §2"}, "[5]": {"test_system": "caspase-3/7 activity in HCC2429", "test": "Caspase-Glo 3/7 apoptosis assay, HCC2429", "assay_type": "cell-based, human", "conditions": "1.1 μg/ml, 48 hours", "procedure": "as §1, §2"}}, "data": [{"molecule": "B1", "values": [{"measurement": "IC50 (ng Ab/mL), U2OS/hNotch3", "setting": "U2OS/hNotch3", "result": 1330, "unit": "ng Ab/mL"}, {"measurement": "effect on structure of the mitotic spindle apparatus", "setting": "[1]", "result": "disrupted the structure of the mitotic spindle apparatus"}, {"measurement": "Relative luminescence units (caspase-3/7)", "setting": "[2]; 1 μg/ml, 48 hours", "result": "78,622 ± 1160"}, {"measurement": "induction of caspase-3/7 activity over control Neg8.8-vc0101 treated cells", "setting": "[2]; across MDA-MB-468/hNotch3, HCC2429 and OVCAR3 cells", "result": "2-3 fold"}, {"measurement": "% pHH3", "setting": "[3]; 6 hr after single 3 mg/kg iv dose", "result": 2.54, "unit": "%"}, {"measurement": "% pHH3", "setting": "[3]; 24 hr after single 3 mg/kg iv dose", "result": 5.37, "unit": "%"}, {"measurement": "% pHH3", "setting": "[3]; 96 hr after single 3 mg/kg iv dose", "result": 5.19, "unit": "%"}, {"measurement": "Relative luminescence units (caspase-3/7)", "setting": "[4]", "result": "209,715 ± 15572"}, {"measurement": "Relative luminescence units (caspase-3/7)", "setting": "[5]", "result": "128,518 ± 3483"}]}]}
